This is an account of results in US11643438B2, “Antimicrobial peptides and methods of use” (priority 2018, dated 2023).

Converted amounts (≈) assume the structure as drawn. *1 amine or outer side, *2 acyl side, *3 side chain or, on linkers, in order; H or OH if unused. Where a SMILES comes first, the peptide text is derived from it. [ ]: non-standard residue; d: D form. X2 = CC[C@H](C)C[C@H](C)C[C@H](C)C[C@H](N[*:1])C(=O)[*:2]; X1 = CC[C@@H](C)[C@@H](O[*:1])C(=O)[*:2]; NMeVal(β-OH) = CN[C@H](C(=O)O)C(C)(C)O; aIle = CC[C@@H](C)[C@H](N)C(=O)O; NMeV = CN[C@H](C(=O)O)C(C)C; Sar = CNCC(=O)O

For the test, the system named is A. fumigatus, as well as several other Aspergilli. Description: Antifungal MIC80 assay, summary over Aspergilli. The following applies: Aspergillus fumigatus, read-out: minimum MIC80 value.

The term MIC80 denotes the lowest concentration that inhibits either 80% of growth or 80% of the strains tested, depending on the study.

Turning to `CC[C@H](C)C[C@H](C)C[C@H](C)C[C@@H]1NC(=O)[C@H](C(C)C)N(C)C(=O)[C@@H]([C@H](C)CC)OC(=O)[C@H](C(C)(C)O)N(C)C(=O)[C@H](CC(C)C)NC(=O)[C@H](C(C)C)N(C)C(=O)[C@H]([C@H](C)CC)NC(=O)[C@@H]2CCCN2C(=O)CN(C)C1=O` [Compound 1, persephacin] (cyclo(L[NMeVal(β-OH)][X1][NMeV][X2][Sar]P[aIle][NMeV])), the MIC80 turned out to be 1.25 µM (≈ 1.34 µg/mL).
